Experimental data published in the RNAGym collection of RNA variant scans (doi:10.1073/pnas.2313332121).
Variants at the background level are over-represented here.

B1: TPR 5TU (parent)
chain: GGAUCUUCUCGAUCUAACAAAAAAGACAAAUCUGCCACAAAGCUUGAGAGCAUCUUCGGAUGCAGAGGCGGCAGCCUUCGGUGGCGCGAUAGCGCCAACGUUCUCAACUAUGACACGCAAAACGCGUGCUCCGUUGAAUGGAGUUUAUCAUG

Variants of: B1
Assay: polymerase ribozyme fitness, log enrichment relative to wild type (log ratio); higher = more active; in vitro selection for triplet polymerase activity
Outline: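 Mutant libraries for each subunit of a heterodimeric triplet polymerase ribozyme were made by PCR and then transcribed. Each library underwent one round of in vitro selection in triplicate: annealing with a biotinylated primer, the partner subunit and triplets, frozen incubation at −7 °C, gel excision of extended constructs, streptavidin-bead capture and RT-PCR. Input and output libraries were Illumina-sequenced, and only genotypes with ≥10 input reads and ≥1 read per output were kept. Fitness is the logarithm, base 2, of genotype enrichment over wild-type enrichment, computed from inverse-variance-weighted replicate averages.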

Polymerase ribozyme fitness (log ratio), -4.02:
C5A A12G A23C G84A

Polymerase ribozyme fitness (log ratio), -2.01:
U4G G84A U109A A115C C123A

Polymerase ribozyme fitness (log ratio), -3.5:
U4C C85G C99U C125G

Polymerase ribozyme fitness (log ratio), -2.21:
U4C A22U A73U C96G A120G

Polymerase ribozyme fitness (log ratio), -4:
U4G A47U G58C C93G

Polymerase ribozyme fitness (log ratio), -0.128:
A3U U82C U101A

Polymerase ribozyme fitness (log ratio), -3.07:
U4C A12G A73G C93U G152A

Polymerase ribozyme fitness (log ratio), -2.45:
U4G U53A C85U G133C

Polymerase ribozyme fitness (log ratio), -1.84:
U4G A40C A137G

Polymerase ribozyme fitness (log ratio), -1.64:
U4C A22G G86A

Polymerase ribozyme fitness (log ratio), -1.92:
U4G A21C C93G

Polymerase ribozyme fitness (log ratio), -3.28:
U4G A89C C131A

Polymerase ribozyme fitness (log ratio), -1.51:
U4C C51U C76U G94A

Polymerase ribozyme fitness (log ratio), -4.13:
U4G C14U A52U C63U C85U

Polymerase ribozyme fitness (log ratio), -1.42:
U4C G48A

Polymerase ribozyme fitness (log ratio), -1.63:
U4A C51U G94C A98U

Polymerase ribozyme fitness (log ratio), -3.48:
U4A A22C U56A G124U U135C

Polymerase ribozyme fitness (log ratio), -0.704:
U4C C85U U101G A147C

Polymerase ribozyme fitness (log ratio), -3.46:
C5A A20G C85U C93U A97U

Polymerase ribozyme fitness (log ratio), -3.09:
C5A A16U A52G A106G

Polymerase ribozyme fitness (log ratio), -4.11:
U4G G25A U45G C87A C99A C103U C105G U139G G143A

Polymerase ribozyme fitness (log ratio), -2.63:
U4G A21G A52G G141A

Polymerase ribozyme fitness (log ratio), -3.38:
C5A A19U G86C A147C

Polymerase ribozyme fitness (log ratio), -0.205:
A3U U145C

Polymerase ribozyme fitness (log ratio), ≤ -4.2:
U4A A16C C79G A91C
U4A A16U A17G A21U A24U G84A C114U A122U A142C
U4A A16U A113C A115U
U4A A17G A28C C38U A60U G94U A120C
U4A A17G C35A G59C U135A
U4A A21U A30U G50C G92U U109G U127G U139C
U4A A24G G34C A39U C85G C105A A113U
U4A A26G A49C A107G
U4A A29G U61A G94U G126U G133U U151G
U4A A29U C38U U44A U55A C57U C87G C95G
U4A A40C G80A G88C A89G C93U C105U C116A
U4A C5G A22U G25U A30U C63U A66C G143U
U4A C5G C69U C79U C85U G94C G117A G128U
U4A C5G G58A A73U C75U C85A G100A C105G U145A
U4A C5G U31G U56A G80C C87G C99G
U4A C10U A17G A21C C43U G92A C105A G124C
U4A C10U U104A A119U
U4A C18G G34C G48C C54U U56A G94U U134A A137G
U4A C18U C79G A91U A142C U148C
U4A C43G
U4A C51G G84A A106U C118A
U4A C79G C93U U146C A150C
U4A C96A A98C A115U A142U G152C
U4A G11C C32A A39C G42C A47G G48C A60U G67C A110G
U4A G11U G50U U61A C76U C85U C96A A115G
U4A G25C A30U C54U U55A G62C G68A C96A G143U
U4A G25U C35U C87A C93G
U4A G34U U61G G70A C99U A107C U139G
U4A G42U A47C C75G G88C U144G
U4A G48C G50U G58U G83C C95G U101G G128U
U4A G50A C76U A91U C95U A97G C116A U130A
U4A U9C C27G U55A G70C C85A U127G A142U
U4A U31G A37U A47C G68A C96A U135A A150C
U4A U44A G92A A119U U148G
U4A U44A U82A G92A
U4A U53A C93U A97U
U4A U53A U82A A91U A115G U148G
U4A U56A G83C G100U
U4C A16C U55A G74U C85U C87U C103U U146A A147C
U4C A16G A21G A41C A49U U56A G86A U135A A150G
U4C A16G C85A C99G U135A
U4C A17G A19C A37G G62C G70U U77C
U4C A19G C76G G86U A89G A106C U134G
U4C A19U A20U C43U A47C A66C C85U
U4C A19U A64C C76U G84U A120G U134A
U4C A20C C57U C87G G112U A137C
U4C A20U U33C G59C C87A C132A G133A G136U
U4C A21G C35A U55C A64C G94U G136A
U4C A22G C32U U55A G86C G136A U146C U151C
U4C A22U A26U A40C A52U G67A U90A C99A A150U
U4C A22U C32G C38G G65C G81A C118U C149U
U4C A23C U55G G94A G143U U148C
U4C A24U G71A A91U A147C
U4C A26U C43A U55A A73G C93U U134A U139G U146A U148A
U4C A30U C72G C93G G140A
U4C A66C C87A U134C
U4C C5A C87A A91G U145A
U4C C8G A24C G50U C75G C93G
U4C C10G A28G G34U G48C U55G G86C U148G
U4C C14A C93G
U4C C14U C75A C96A C129A
U4C C18G C32U A52C G59U A91U
U4C C18G G46A G65C C85U A89G U109G A138U G141A
U4C C32G G46A C79A C87A A89U C105U A120G
U4C C35A C69U G74A G94C A115C U134G
U4C C35A C75U G112U U144C U145C
U4C C36U A49G A66U G83A C85G G88A C114U U146G
U4C C54G A91C A98U
U4C C54G C87U C95G G143A U146G
U4C C69A A73C C79A G81U G141U
U4C G11U G84A C108A
U4C G42C C85G G92A G94A U101A A115U A142C U148G
U4C G46A A47U A66G C87G
U4C G50C A60U G62C C93G C108U C118U U135G A137G U139G
U4C G71A G83U A89U C131U A137U
U4C U6A C14U A26U C54A C72G G94U G100C A106U
U4C U31C C76G C116G
U4G A12G U78A A91U G124A A138G
U4G A16C U45A U56A C63G A66U C85G G92A C132A
U4G A16U A49C A97G
U4G A19C C36A A119C G133A
U4G A19G A23G G59U A66U G141C
U4G A19G A73C C87U
U4G A21G A52U C85G C95G A137C
U4G A24G U44A U56G G94A A138C
U4G A39U C75U U77C G84U C105G
U4G A40C A60U G70A C103A A107G
U4G A41U A91C A97U
U4G A47C C85U A110U C118A C129G A137G A142C
U4G A47U G58C C69U G86A C105U
U4G A73U C87A C99U
U4G A91U A106G
U4G C8A U31A U55A C87U U101C G133C
U4G C8G A23C A52G C54G G74C
U4G C10A U15C A37U U45A U55A G70U G81A A107C G117C
U4G C10A U56A G133U G143U
U4G C14G C93G
U4G C18G G42A A73C A91G C95G C99G C118A
U4G C27A U31G A39C G50A A52C C85G G88C A110U A121C C125A G140A
U4G C27U A52U C72U C76A C85A
U4G C35G A47G U111G U145A
U4G C51A G92A C108U G126A
U4G C51U G94A A106U U109G
U4G C54G A64U C95U U134G
U4G C75A C76U C95U C132G
U4G C79A C93A
U4G G11A G74A G88A U102G G143C U146G
U4G G11U A20U A28U U56A C85U C99U U151A
U4G G42U G92C
U4G G50A C75G G94U A142U A147U
U4G G50A C95A C116G G136C
U4G G50C U55A G88A U144A
U4G G59U U78G C96A G117C
U4G G65C C85G
U4G U6G C36U C57G G58U C93G C105U
U4G U7G A49U C75G C93U
U4G U7G U13G C43A C54U U78G G94C
U4G U9C U90C C93G A113C
U4G U9G G59C U82G C87G C96A
U4G U15G A20G A39C C85G A107G
U4G U31C C35U G68A A115G C132G
U4G U31G G50C G68A C75A G86U C95U U101A
U4G U53C G94A U130G
U4G U56A C57A G59A G68A C96G
U4G U56A C76U U135C A138U
U4G U77C G124U U135G U139A
C5A A12C G42A G68C C79A G83A C108G
C5A A12G A40U A47C C85G C96A U104A U151G
C5A A12U C32G U33G G94C U148G A150U
C5A A16G C38U A89U U101A G143A U145A
C5A A16U U56G G58C G59U C93A C116G G124U
C5A A17G A28U C35U A60U C85G A138U
C5A A17G C36A U53G U56A A91G
C5A A20C A37U A39G G59C A66G G88U
C5A A20C G92U G112A U139A
C5A A20U A21U A107G U145C C149U
C5A A20U C85G C103G C123U G141C
C5A A20U G42C U82C A91G U102A C125U
C5A A22C C87G U134C U146G
C5A A23C A29U U55G
C5A A23U A26C A28U C35U G83A G88U C95G U102G
C5A A23U C36U U82A U90G G100U
C5A A24G A64C G68A C76U C79U G83C U90A C95G A115U A138G
